# Hit rate of the full screen: of about 310,000 compounds, about 14,000 (4.5%) showed an effect of 50% or more. Effects have a minus sign here. This is one part of the list.
# Biological target: human ether-à-go-go-related gene (hERG) potassium channel (human, UniProt Q12809)
# Test: primary screen, population patch clamp on CHO cells stably expressing hERG
# 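Note: peak tail current of the secondary pulse compared with the same well before compound.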
# Chain of human ether-à-go-go-related gene (hERG) potassium channel (Q12809 whole entry, looked up): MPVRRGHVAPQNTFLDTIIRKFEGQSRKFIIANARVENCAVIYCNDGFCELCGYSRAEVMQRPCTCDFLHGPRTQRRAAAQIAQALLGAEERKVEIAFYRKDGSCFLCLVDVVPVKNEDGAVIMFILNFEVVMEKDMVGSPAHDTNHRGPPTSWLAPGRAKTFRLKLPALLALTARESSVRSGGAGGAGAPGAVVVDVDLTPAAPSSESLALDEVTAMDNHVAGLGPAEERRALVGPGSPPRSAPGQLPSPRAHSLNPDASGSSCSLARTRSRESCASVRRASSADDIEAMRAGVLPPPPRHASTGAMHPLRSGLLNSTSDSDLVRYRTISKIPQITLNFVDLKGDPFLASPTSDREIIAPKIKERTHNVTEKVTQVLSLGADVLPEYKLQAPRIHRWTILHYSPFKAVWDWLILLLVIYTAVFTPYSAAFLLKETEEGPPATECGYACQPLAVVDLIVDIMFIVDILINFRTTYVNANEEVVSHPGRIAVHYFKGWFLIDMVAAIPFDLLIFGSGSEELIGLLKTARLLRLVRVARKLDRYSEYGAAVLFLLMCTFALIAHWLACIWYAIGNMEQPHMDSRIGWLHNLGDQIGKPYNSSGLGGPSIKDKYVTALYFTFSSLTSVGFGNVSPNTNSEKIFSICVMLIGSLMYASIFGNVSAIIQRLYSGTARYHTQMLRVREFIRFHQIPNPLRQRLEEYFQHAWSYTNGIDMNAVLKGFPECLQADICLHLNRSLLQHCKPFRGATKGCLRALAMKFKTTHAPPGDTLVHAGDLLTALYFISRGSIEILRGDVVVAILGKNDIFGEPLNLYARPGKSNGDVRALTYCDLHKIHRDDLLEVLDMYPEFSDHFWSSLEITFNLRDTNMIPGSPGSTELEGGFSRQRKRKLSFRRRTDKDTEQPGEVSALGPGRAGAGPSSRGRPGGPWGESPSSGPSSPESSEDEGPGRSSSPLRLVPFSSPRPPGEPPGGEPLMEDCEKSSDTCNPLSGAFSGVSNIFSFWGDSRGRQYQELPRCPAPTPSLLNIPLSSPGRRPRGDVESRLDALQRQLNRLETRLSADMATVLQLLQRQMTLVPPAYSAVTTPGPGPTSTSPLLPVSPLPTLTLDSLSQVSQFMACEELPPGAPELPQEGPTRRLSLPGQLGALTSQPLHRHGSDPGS
row,SMILES,"hERG current change (%, negative = inhibition) at 10uM [%]"
1,NS(=O)(=O)c1cccc(NC(=O)c2cc(=O)c3ccccc3o2)c1,6.18
2,CCCCn1c(N)nc2ccccc21.Cl,-8.47
3,CCOc1cc(/C=N/NC(=O)C(=O)NC2CC2)cc(Br)c1O,6.42
4,O=C(CN1C(=O)c2ccccc2S1(=O)=O)N1CCN(c2ccccc2F)CC1,10.4
5,O=C(C1CCC(=O)N1C1CCCCC1)N1CCC2(CC1)OCCO2 (centres unmarked),7.41
6,CC(=O)c1ccc(S(=O)(=O)NC2CC(=O)N(c3ccc(Cl)cc3)C2)cc1 (centres unmarked),-34.8
7,CC1(C)CC(=O)/C(=C(\O)c2ccccc2)C(=NCCO)C1,8.54
8,CC(=O)c1ccc(NC(=O)C2CCCN2S(=O)(=O)c2ccc(C)cc2)cc1 (centres unmarked),-13.5
9,O=C(/C=C/c1cccs1)NC(=S)NNC(=O)c1ccccc1O,27
10,O=C(Cc1ccc(Cl)cc1)NCC(=O)N1CCCCC1,0.346
11,Cc1cc(C)c(S(=O)(=O)c2ccccc2)c(OC(=O)c2c(F)cccc2F)n1,-18.9
12,CCOC(=O)N1CCN(C(=O)c2cc3cc(Br)ccc3oc2=O)CC1,-17.7
13,Cc1ccc(C(=O)c2c3ccc([N+](=O)[O-])cc3[n+]([O-])n2CCC(N)=O)cc1,-32.6
14,O=C(Cn1c(=O)[nH]c2sc3c(c2c1=O)CCCC3)NCC1CCCO1 (centres unmarked),20
15,Cc1nc(-c2ccc(Cl)cc2)sc1C1(C)CC(c2ccccc2Br)=NO1 (centres unmarked),13.8
16,Cc1ccsc1C(=O)N(c1nc2ccccc2s1)c1c(C)cccc1C,30.3
17,Cc1nc(-c2cccc(Br)c2)ccc1C(=O)O,25.3
18,Cn1c(CCC(=O)OCC(=O)NCc2ccc3c(c2)OCO3)nc(=O)c2ccccc21,37.8
19,CCC(C)(C(=O)NC1CCCC1)N(Cc1ccco1)C(=O)c1ccccn1 (centres unmarked),1.02

row,SMILES,"hERG current change (%, negative = inhibition) at 10uM [%]"
1,COc1ccc(NC(=O)CN(C)C(=O)CCSc2ccc(C)cc2)cc1,-31.2
2,COc1ccc(OC)c(/C=C/C(=O)N2CCCc3ccccc32)c1,-12.6
3,O=C(Nc1c(Cl)cc(Cl)cc1-c1nc2ccccc2s1)c1ccc(Br)o1,1.46
4,Cc1ccccc1-n1c(=O)c2c(n3cnnc13)-c1ccccc1CC21CCCCC1,-9.87
5,COc1ccc(C(CNC(=O)c2cccc(S(=O)(=O)Nc3ccccc3OC)c2)N2CCCC2)cc1 (centres unmarked),-56.6
6,CCc1ccc(C2=NN(CCC(=O)NC(C)c3ccc4c(c3)OCCO4)C(=O)CC2)cc1 (centres unmarked),-15.4
7,O=C(COC(=O)c1ccc(F)cc1F)Nc1cccnc1Cl,-56.3
8,CC(C)NC(=S)n1cc(C(=O)c2cc(Cl)cc(Cl)c2O)cn1,12.3
9,COC(=O)C1CCCCN1C(=O)c1cc(COc2cccc3cccnc23)on1 (centres unmarked),5.16
10,O=C(NCC(=O)N(c1ccc(F)cc1)C(C(=O)NCC1CCCO1)c1ccccc1)c1ccco1 (centres unmarked),-3.58
11,O=C(COC(=O)c1cc2ccccc2oc1=O)Nc1ccc(F)cc1F,1.29
12,CCC1C2CN(C(C)=O)CC=C2C(C#N)=C(N)C1(C#N)C#N (centres unmarked),5.66
13,O=C(COC(=O)/C=C/c1cnc2ccccc2n1)NCC(F)(F)F,6.96
14,CC(C)c1ccc(O)c(N)c1,-3.7
15,COc1ccc(OC)c(S(=O)(=O)n2ccc(C)n2)c1,2.45
16,COc1ccc(OCCSc2nc3ccccc3c(=O)[nH]2)cc1,3.43
17,O=S(c1ccsc1)c1ccsc1,10.5
18,CCN(CC)CCn1c(=N)n(CC(O)c2ccco2)c2ccccc21.Cl (centres unmarked),-73.2
19,COc1ccc(N(CC(=O)Nc2ccc(F)c(F)c2)S(=O)(=O)c2c(C)[nH]c(=O)[nH]c2=O)cc1,19.9

row,SMILES,"hERG current change (%, negative = inhibition) at 10uM [%]"
1,O=C(CSc1ccc(-c2ccco2)nn1)Nc1cccc(F)c1,-55.2
2,CC(C)(CNC(=O)COc1ccccc1Cc1ccccc1)N1CCOCC1,-55.6
3,C=CCOc1cccc(C2/C(=C(/O)c3ccccc3)C(=O)C(=O)N2CCN2CCOCC2)c1 (centres unmarked),4.36
4,CCCN(C(=O)c1cccc(S(=O)(=O)N2CCN(Cc3ccccc3)CC2)c1)C1CCS(=O)(=O)C1 (centres unmarked),-17.3
5,CCOC(=O)C1=C(CN2CCN(CCC#N)CC2)NC(=O)NC1c1ccc2c(c1)OCO2 (centres unmarked),-27.2
6,CN(CC(=O)Nc1ccc(F)c(F)c1F)C(=O)c1ccc2c(c1)S(=O)(=O)N=C1CCCCCN12,-18.7
7,CC(=O)NCCc1cc2ccc(C)c(C)c2[nH]c1=O,10.1
8,Cc1ccc(C(=O)/C=C/N(C)C)o1,22.7
9,COc1cc(OC)cc(C(=O)OCC(=O)Nc2ccc3[nH]c(=O)[nH]c3c2)c1,-2.68
10,O=C(COC(=O)c1ncc(Cl)c(Cl)c1Cl)Nc1ccc(Cl)cn1,-43.4
11,CCOc1ccccc1OCC(=O)Nc1cccc(S(=O)(=O)N2CCCCCC2)c1,-43.6
12,CCC(=O)C1CCCN(C(=O)CCc2nnc(-c3ccc4c(c3)OCO4)o2)C1 (centres unmarked),-8.82
13,CSc1cc(-c2ccccc2)n(Cc2c(Cl)cccc2Cl)c(=O)c1C#N,13.7
14,COc1ccc(Cl)cc1NC(=S)N1CCN(C(=O)C2CCCO2)CC1 (centres unmarked),17.7
15,C(=N\Nc1nc2ccccc2[nH]1)/c1ccc2c(c1)OCCO2,10.9
16,Cc1cc(NN)nc(Cc2ccccc2)n1,10.2
17,Cc1cc(OCC(O)CN2CCc3ccccc3C2)cc(C(C)C)c1.Cl (centres unmarked),-56.2
18,S=C(NCc1ccccc1)NC1CCSc2ccccc21 (centres unmarked),13.2

# — PMC4336329 (PLoS ONE, 2015)
